{"source": "PubChem BioAssay AID485344", "about": "(National Center for Advancing Translational Sciences (NCATS), 2010)", "note": "Screen size: about 340,000 compounds; about 6,900 (2%) were called active. Cut-off read from the data, not from the text of the source: active = inhibition above about 30%; inactive = below that, where a call was filed. The entries are a selection whose mix differs from that of the whole data set. Where no call is shown, the source filed none.", "data": [{"molecular_target": "D(2) dopamine receptor (Homo sapiens) (UniProt P14416)", "sequence (P14416 whole entry, looked up)": "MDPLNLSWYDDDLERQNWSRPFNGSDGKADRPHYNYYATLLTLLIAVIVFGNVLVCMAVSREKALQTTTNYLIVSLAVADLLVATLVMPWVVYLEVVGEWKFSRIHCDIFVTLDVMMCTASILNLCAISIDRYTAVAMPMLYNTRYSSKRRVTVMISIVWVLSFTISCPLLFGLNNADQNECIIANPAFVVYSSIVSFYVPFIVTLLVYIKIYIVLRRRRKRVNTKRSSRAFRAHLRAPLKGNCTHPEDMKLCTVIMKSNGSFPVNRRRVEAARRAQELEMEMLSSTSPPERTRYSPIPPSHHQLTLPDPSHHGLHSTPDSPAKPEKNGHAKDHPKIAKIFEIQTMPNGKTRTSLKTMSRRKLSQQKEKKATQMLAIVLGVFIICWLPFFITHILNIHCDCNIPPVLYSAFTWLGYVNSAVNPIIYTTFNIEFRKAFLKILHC", "test": "HTS Assay for Allosteric Antagonists of the Human D2 Dopamine Receptor: Primary Screen for Antagonists; note: 0% is about no effect", "conditions": "HEK293 TREx D2 cells, calcium flux, dopamine EC80; at 10 µM; stronger effect = higher value", "method_in_brief": "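Antagonism is scored as inhibition of an EC80 dopamine-evoked calcium signal in a force-coupled, tetracycline-inducible HEK293 T-REx D2 line, with compound present 180 s before agonist.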", "values": [{"smiles": "Cc1ccc(NC(=O)C2CCN(S(=O)(=O)c3ccc4c(c3)CCCC(=O)N4)CC2)c(Cl)c1", "inhibition": "6.09%"}, {"smiles": "CCc1ccc(C2=C(C)C(N3CCC(C(=O)Nc4cccc(OC)c4)CC3)=NS2(=O)=O)cc1", "inhibition": "7.75%"}, {"smiles": "Oc1ccc(/C=C/c2nc(-c3ccccc3O)n(-c3ccccc3)n2)c(O)c1", "inhibition": "-18%"}, {"smiles": "CCOc1ccc(NC(=O)CSc2nc(-c3cccs3)cc(C(F)(F)F)c2C#N)cc1", "inhibition": "3.06%"}, {"smiles": "Cc1cccc(NC(=O)CSc2nc(=O)n(Cc3ccncc3)c3c2CCC3)c1C", "inhibition": "-15.2%"}, {"smiles": "Cc1ccc(-c2noc(-c3ccccc3NC(=O)C3CC(=O)N(c4cccc(C)c4)C3)n2)cc1", "note": "(configuration not stated)", "inhibition": "28%"}, {"smiles": "CCOC(=O)c1c(NC(=O)COc2cc(C)ccc2C(C)C)sc2c1CCCC2", "inhibition": "-10.2%"}, {"smiles": "Cc1cc(/C=N/O)c(C)n1-c1ccc(Br)cc1", "inhibition": "active: 37.7%"}, {"smiles": "Cc1cccc(NC(=O)c2c(NC(=O)c3cccs3)sc3c2CCC(C)C3)c1", "note": "(configuration not stated)", "inhibition": "-4.94%"}, {"smiles": "COc1cccc(CN2CCc3nc(Nc4ccc5c(c4)OCCO5)ncc3C2)c1OC", "inhibition": "7.92%"}, {"smiles": "CC(=O)Nc1ccc(OCc2cc(=O)n3ccccc3n2)cc1", "inhibition": "-24.5%"}, {"smiles": "COc1ccccc1N1CCN(C(CNC(=O)C(=O)NCCN(C)C)c2cccnc2)CC1", "note": "(configuration not stated)", "inhibition": "-3.34%"}, {"smiles": "S=C(NCc1ccco1)Nc1ccccc1", "inhibition": "active: 30.6%"}, {"smiles": "O=C(O)C1CC=CCC1C(=O)NCCCCc1ccccc1", "note": "(configuration not stated)", "inhibition": "active: 33.7%"}, {"smiles": "CN(C)C(=O)c1ccc(NC(=O)Cn2nc(-c3ccccc3)c3ccccc3c2=O)cc1", "inhibition": "-6.27%"}, {"smiles": "CCOC(=O)c1cccc(NS(=O)(=O)c2cc(-c3cnc(C)o3)ccc2OC)c1", "inhibition": "-19.9%"}, {"smiles": "Clc1cccc(-n2ncc3c(NCCc4ccccc4)ncnc32)c1", "inhibition": "-8.25%"}, {"smiles": "CCCOc1ccc(C2C(=O)N(C3CCCCC3)CC(=O)N2CCc2ccccc2)cc1OC", "note": "(configuration not stated)", "inhibition": "-11.8%"}, {"smiles": "Cc1c(Cl)cccc1NC(=O)c1ccc2c(c1)nnn2C1CCCC1", "inhibition": "-14.5%"}, {"smiles": "CCOC(=O)c1c(C)oc2nc(C)nc(N(CC(C)C)CC(C)C)c12", "inhibition": "-9.26%"}, {"smiles": "O=C(CCS(=O)(=O)c1ccccc1)N(Cc1cccnc1)c1nc2c(Cl)cccc2s1", "inhibition": "-17.6%"}, {"smiles": "O=C(Nc1ccccc1C(=O)OCc1cc(=O)n2c3c(sc2n1)CCCC3)c1ccccc1", "inhibition": "15.9%"}, {"smiles": "CCc1ccc(NC(=O)c2ccc3c(=O)n4nc(Nc5ccccc5C)sc4nc3c2)cc1", "inhibition": "4.89%"}, {"smiles": "COc1ccc(Cl)cc1NC(=O)Cn1c(=O)n(Cc2nc(C)no2)c(=O)c2ccccc21", "inhibition": "3.29%"}, {"smiles": "C=CCc1c(C)nc2nc(SCC(=O)Nc3cccc(Cl)c3)nn2c1C", "inhibition": "-10.6%"}, {"smiles": "CC(C)CN(CC(C)C)c1nc(-c2ccc(Cl)cc2)nc2ccccc12", "inhibition": "-2.99%"}, {"smiles": "CCc1cccc(NC(=O)c2cc3c(=O)[nH]c4ccccc4c3n2C)c1", "inhibition": "0.929%"}, {"smiles": "COc1ccc(CN(C)S(=O)(=O)c2nnc(NC(=O)C(C)C)s2)cc1OC", "inhibition": "12.3%"}, {"smiles": "COc1ccc(NC(=O)CSc2nnc3ccc(-c4ccccn4)nn23)cc1OC", "inhibition": "active: 30.3%"}, {"smiles": "Cc1ccc(C)c(CSC2=NC(C)(C)Nc3ccccc32)c1", "inhibition": "-22.2%"}, {"smiles": "COc1ccccc1NC(=O)C1=C(C)Nc2nc(SCc3ccccc3F)nn2C1c1cccnc1", "note": "(configuration not stated)", "inhibition": "0.854%"}, {"smiles": "Cc1ccc(Cl)cc1NC(=O)c1sc2nc(-c3ccccc3)cn2c1C", "inhibition": "-17.1%"}, {"smiles": "Clc1ccc(Nc2c(-c3cccs3)nc3ccc(Cl)cn23)cc1", "inhibition": "-19%"}, {"smiles": "COc1ccc(CCNC(=O)Cn2c(=O)cc(C(F)(F)F)c3c(C)nn(C)c32)cc1OC", "inhibition": "9.77%"}, {"smiles": "COc1ccc(-c2nc3scc(CCNS(=O)(=O)c4cc(F)ccc4OC)n3n2)cc1OC", "inhibition": "19.2%"}, {"smiles": "Cc1ccc(CCNC(=O)CCCn2c(=O)c3ccccc3n(CC(=O)Nc3cc(Cl)ccc3C)c2=O)cc1", "inhibition": "4.04%"}, {"smiles": "CC(=O)N1CCc2c(sc3nc(SCC(N)=O)n(-c4ccc(F)c(Cl)c4)c(=O)c23)C1", "inhibition": "14.5%"}, {"smiles": "Cc1ccc(CN2CCSc3ccc(C(=O)Nc4cc(C)cc(C)c4)cc32)cc1", "inhibition": "2.53%"}, {"smiles": "CN(C(=O)CSc1nnc(-c2ccc([N+](=O)[O-])cc2)o1)C1CCCCC1", "inhibition": "-9.94%"}, {"smiles": "COc1ccc2c(c1)c1c(c(=O)n(Cc3ccccc3)c(=O)n1CC(=O)Nc1cc(C)cc(C)c1)n2C", "inhibition": "-7.33%"}, {"smiles": "CC1CCN(CCn2c(=S)[nH]c3ccccc3c2=O)CC1", "inhibition": "active: 30.6%"}, {"smiles": "O=C(Nc1ccccc1OCc1cc(=O)n2ccccc2n1)c1cccc(Br)c1", "inhibition": "-20.4%"}, {"smiles": "Cc1cccc(N2CCN(C(=O)c3ccc4c(c3)c(C)c(C)n4C)CC2)c1C", "inhibition": "7.93%"}, {"smiles": "CCOc1ccc(NC(=O)N2CCC(CN3CCCCCC3)CC2)cc1", "inhibition": "15.4%"}, {"smiles": "COc1ccc(CCN(C)C/C=C/c2ccccc2[N+](=O)[O-])cc1OC", "inhibition": "active: 57.3%"}, {"smiles": "Cc1ccc(Cl)cc1NC(=O)CCCn1c(=O)c2cccn2c2ccccc21", "inhibition": "1.57%"}, {"smiles": "Clc1ccc(OCc2nc(-c3ccc(-n4cccc4)cc3)no2)cc1", "inhibition": "0.9%"}, {"smiles": "O=C(CS(=O)(=O)Cc1ccccc1)Nc1ccc(Cl)cn1", "inhibition": "active: 51.9%"}, {"smiles": "COCCn1c(C)cc(O)c(C(c2ccccc2)N2CCN(CCO)CC2)c1=O", "note": "(configuration not stated)", "inhibition": "16%"}, {"smiles": "COc1cc2c(cc1OC)C(COc1ccc3c(C)cc(=O)oc3c1)N(C(=O)c1cccc(OC)c1OC)CC2", "note": "(configuration not stated)", "inhibition": "-1.7%"}, {"smiles": "CC(=O)N1c2ccc(S(=O)(=O)N3CCCCCC3)cc2CC1C(=O)NCc1ccccc1", "note": "(configuration not stated)", "inhibition": "-2.76%"}, {"smiles": "Cc1ccc(-c2nc(CSCC(=O)NC3CCN(Cc4ccccc4)CC3)c(C)o2)cc1", "inhibition": "active: 47.3%"}, {"smiles": "O=C(Nc1ccc2oc(-c3ccccc3)nc2c1)c1ccc2ccccc2c1", "inhibition": "25.1%"}, {"smiles": "COCCCNC(=O)CSc1nc(-c2ccccc2)[nH]c1-c1ccc(C)cc1", "inhibition": "19.8%"}, {"smiles": "CCn1c(=O)cc(SCC(=O)NCCc2ccc(OC)cc2OC)c2ccccc21", "inhibition": "4.1%"}, {"smiles": "Cn1c(=O)[nH]c2cc(-c3noc(-c4ccc(F)cc4)n3)ccc21", "inhibition": "17.3%"}, {"smiles": "CCc1ccc(-n2c(=O)c3c4c(sc3n(CC(=O)NC(C)CC)c2=O)CCCC4)cc1", "note": "(configuration not stated)", "inhibition": "3.05%"}, {"smiles": "CCc1cnc2c(c1SCC(=O)Nc1ccc(C)cc1C)c(=O)n(C)c(=O)n2C", "inhibition": "-25.7%"}, {"smiles": "CCCn1c(=O)c2sccc2n2c(CCCC(=O)Nc3cccc(CC)c3)nnc12", "inhibition": "4.01%"}, {"smiles": "COc1ccc(NC(=O)Cn2c(SCc3ccc(C)cc3)nc3cccnc32)c(OC)c1", "inhibition": "-16.8%"}, {"smiles": "Cc1ccc(NC(=O)CCC(=O)N2Cc3ccccc3Oc3ncccc32)cc1", "inhibition": "2.72%"}, {"smiles": "O=C(CCc1ccccc1)NC1CC(=O)N(c2ccccc2)C1", "note": "(configuration not stated)", "inhibition": "-18.3%"}]}]}
